Data published in the supplement of paper PMC3334620.
The full ranking holds about 33,000 sequences; the median of “E-score (-0.5 to 0.5)” is about -0.036, and the highest 2% start at about 0.37. The list shows a part of the results.

What follows are sequences tested against T1, Yer064c (UniProt P40041) (assay: PBM E-score (8-mer binding enrichment) (E-score (-0.5 to 0.5)); higher = stronger / more preferred TF binding; most listed sequences are background and not binding sites). Conditions: protein concentration: 200 nM; construct: GST-full length.
T1 sequence: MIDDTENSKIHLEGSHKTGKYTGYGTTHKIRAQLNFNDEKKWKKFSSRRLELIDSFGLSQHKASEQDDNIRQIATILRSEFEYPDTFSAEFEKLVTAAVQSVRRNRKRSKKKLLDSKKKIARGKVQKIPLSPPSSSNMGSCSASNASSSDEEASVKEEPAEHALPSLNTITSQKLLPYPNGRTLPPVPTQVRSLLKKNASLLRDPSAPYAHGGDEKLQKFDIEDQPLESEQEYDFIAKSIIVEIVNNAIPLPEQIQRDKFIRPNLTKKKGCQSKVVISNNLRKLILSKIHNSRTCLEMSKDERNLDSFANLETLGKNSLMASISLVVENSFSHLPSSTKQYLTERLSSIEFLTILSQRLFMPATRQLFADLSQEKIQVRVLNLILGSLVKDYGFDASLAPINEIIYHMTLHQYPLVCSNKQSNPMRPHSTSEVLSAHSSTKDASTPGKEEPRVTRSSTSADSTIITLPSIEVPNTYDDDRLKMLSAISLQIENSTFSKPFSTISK
Procedure: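 Universal 'all 10-mer' protein binding microarrays (Agilent AMADID 015681) probed with GST-tagged S. cerevisiae TFs (full-length or DBD) made by in vitro transcription/translation (PURExpress), about 100-200 nM. Bound TF was detected with fluorescent anti-GST. Each ungapped 8-mer (which stands for itself and its reverse complement) is scored by the PBM enrichment score (E-score), a modified Wilcoxon-Mann-Whitney statistic from -0.5 to +0.5, computed with the Universal PBM Analysis Suite. Scale: above 0.35 generally sequence-specific binding.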

Row | Sequence | PBM E-score
1 | ACACGTAA | 0.0013
2 | GGTTAAAA | 0.0563
3 | AACCCGCC | -0.00783
4 | GTGATGTA | -0.0289
5 | GGGAGACC | -0.259
6 | GTACAGAA | 0.0343
7 | CTCACGCC | 0.172
8 | CACACTGA | 0.0492
9 | GTCGCCCA | 0.0975
10 | ATATAGGG | -0.236
11 | CTTGTCAC | -0.185
12 | CGTGGGTA | 0.0333
13 | AGCATGAC | 0.212
14 | AGATGTGG | -0.0274
15 | CTGAGTCC | 0.402
16 | GCAAGTAC | 0.023
17 | AATCGATC | 0.128
18 | AAGACAAG | -0.182
19 | GAAAGGGC | -0.14
20 | TTCTCCAA | -0.117
21 | CGCTAACG | 0.0264
22 | GCAAGGCC | -0.239
23 | CCTAAACA | -0.103
24 | ATATCCAA | 0.0243
25 | TAGTCTAA | 0.279

Row | Sequence | PBM E-score
26 | AATTGTTC | 0.0722
27 | CCGAGCGC | -0.0243
28 | GAGGTAGC | -0.0828
29 | CGGTCACA | -0.132
30 | ACAAAACG | -0.0665
31 | AATAGTGT | 0.0208
32 | ACCGGTCC | -0.0405
33 | CCTCTGTA | -0.108
34 | GACTAACA | 0.449
35 | AAGTCGTG | 0.281
36 | AGCAGACC | -0.0838
37 | GGAGGGGA | -0.203
38 | GCCAACAA | -0.116
39 | CCAGCAAG | -0.109
40 | TGCGGTAA | 0.0977
41 | CACGGCCA | -0.185
42 | CCTATGCC | -0.151
43 | CGGGGCAG | -0.052
44 | CCGACGAG | 0.00632
45 | CTTGAATC | 0.348
46 | CTGGAGGA | -0.2
47 | GAGAACTA | 0.0181
48 | CACCCAAG | -0.107
49 | TCATAGCA | 0.262
50 | CAAGATCC | -0.0644

Row | Sequence | PBM E-score
51 | TACCCCCA | -0.163
52 | AGCCTTAC | -0.217
53 | CGTGCTGA | 0.116
54 | AAACGACG | 0.0119
55 | GCCGGGAA | -0.314
56 | AACCTAGG | -0.249
57 | GATCCTGA | -0.0226
58 | CCGAGGGC | -0.0597
59 | CAGCATCC | -0.195
60 | AAGCAGAG | 0.0717
61 | ACTCCTGC | 0.176
62 | GCACTTTA | 0.041
63 | ACGCGACA | -0.128
64 | GCAGACCA | -0.0921
65 | ATCTCGGG | 0.0757
66 | CATCTTAG | 0.0471
67 | GTTTACCA | 0.148
68 | ATCGATAG | 0.0388
69 | ATGCCAAT | -0.122
70 | AGCGTCCC | -0.314
71 | GAATAAAC | -0.0329
72 | ATCACCTC | 0.113
73 | GTAGGGGA | -0.202
74 | ACGCGACT | 0.376
75 | ACGAGGAA | -0.136

Row | Sequence | PBM E-score
76 | GCGTGGTA | -0.2
77 | CCGTCGCA | -0.182
78 | CAATACGG | -0.342
79 | AGCAAGTG | -0.0201
80 | CATTCGGG | -0.0821
81 | ATTGGAGG | -0.0627
82 | AATTTATA | 0.112
83 | CATGAAGG | -0.0626
84 | ACTAGCTC | 0.0817
85 | CCGTCTCA | 0.0264
86 | GCGCGTCA | -0.182
87 | GCATCCAA | -0.209
88 | ATGCGACC | -0.133
89 | CGACTACC | 0.383
90 | ATGGTTAA | 0.391
91 | CTTGTTAC | -0.00573
92 | AAGGCCTT | -0.275
93 | AGGGTACG | -0.111
94 | ATCCTAGA | 0.0286
95 | ACAGTAGA | -0.0588
96 | CAGTAGGG | -0.254
97 | AGTGTGAC | 0.303
98 | ACGTCCCC | -0.118
99 | ATAGTCGG | 0.256
100 | GGCGCGGA | -0.248

Row | Sequence | PBM E-score
101 | CAGTGCGA | -0.027
102 | CCGAAGCC | -0.256
103 | AGCTGATG | -0.03
104 | CCGGACTC | 0.327
105 | GCCCAACA | -0.253
106 | AATTAGTC | 0.446
107 | AATCCCCT | -0.161
108 | CAGTACAG | 0.0776
109 | CAGGCTTC | -0.252
110 | ACTGGTCA | 0.036
111 | GATTATAA | 0.216
112 | AGCGGTAC | -0.216
113 | AAAGGATA | 0.0278
114 | ATTGAGAG | 0.0906
115 | AAGGGCAT | -0.0533
116 | GTCTCAAC | 0.216
117 | AATCACAA | 0.362
118 | AGTCCGAT | 0.253
119 | CGGCTCAC | 0.0907
120 | AATGGAAA | -0.17
121 | CGCGAGCC | 0.0358
122 | CCGGGGAA | -0.183
123 | GCAGAGAA | 0.0496
124 | GCCGGTCC | -0.223
125 | CCGCCGGA | -0.102

Row | Sequence | PBM E-score
126 | GATTGTCC | 0.0122
127 | GCTCACGA | 0.121
128 | ATGCGTGA | 0.223
129 | ATGCTGTC | 0.00336
130 | AACCAAGC | -0.0715
131 | ACAGTTAC | -0.0542
132 | AACCACGC | -0.021
133 | ACAATATC | -0.0473
134 | CGGTCGGA | -0.0918
135 | CTATGGTA | 0.0675
136 | GACCATAA | 0.126
137 | AGTGCGTC | -0.262
138 | CGCGTACA | -0.104
139 | TAAAGGAA | -0.116
140 | CGTAGACC | -0.202
141 | AGCGTTCG | -0.0236
142 | ATAGGGCG | -0.0626
143 | ATAAGCCA | -0.052
144 | ACAGGTGG | -0.12
145 | CGCCCACA | -0.0939
146 | ATGCTACA | -0.139
147 | AAGGTAGC | -0.239
148 | CCTGCACG | -0.0255
149 | CGTAAGAA | -0.222
150 | CTATTGAC | 0.22

Row | Sequence | PBM E-score
151 | AGAGCTGC | -0.279
152 | GATAATCC | -0.0741
153 | AGTATAGC | -0.206
154 | AAGTCCCT | -0.127
155 | GGAGAAGA | -0.193
156 | TCCCCTCA | 0.169
157 | CTTTGCTA | -0.0667
158 | CGCCGTAA | -0.287
159 | GCGTTTAC | -0.206
160 | CTGCTCGA | -0.128
161 | AAACTCGA | 0.0424
162 | AGGTCCAG | -0.123
163 | CAGAAGAC | 0.105
164 | CGCGTGCC | -0.108
165 | ACCATATG | 0.0653
166 | TAGCCCCA | -0.0191
167 | ACACATGG | 0.0925
168 | GTGAGGCA | -0.122
169 | CTAAGGAA | 0.012
170 | CCCCCTCC | -0.28
171 | ATGTGCCC | -0.177
172 | GAGAACGC | -0.14
